From the supplement of paper PMC12217912
This is one part of the list. Sequences were assembled here from the parent chain. Values near 0.05 are background.

B1: TEV protease; numbered along this chain (parent)
chain: MGESLFKGPRDYNPISSSICHLTNESDGHTTSLYGIGFGPFIITNKHLFRRNNGTLVVQSLHGVFKVKDTTTLQQHLVDGRDMIIIRMPKDFPPFPQKLKFREPQREERICLVTTNFQTKSMSSMVSDTSCTFPSGDGIFWKHWIQTKDGQCGSPLVSTRDGFIVGIHSASNFTNTNNYFTSVPKNFMELLTNQEAQQWVSGWRLNADSVLWGGHKVFMVKPEEPFQPVKEATQL

Variants of: B1
Assay: raw area under fraction-flipped curve 0-4 h after induction (AUC4h, not background-subtracted), DNA-recorder readout of cleavage of the substrate (dimensionless); higher = more cleavage of the substrate by the protease variant
Conditions: temperature: 34 °C; time window: 0-4 h after rhamnose induction
Protocol: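 In vivo DNA recorder in E. coli TOP10(DE3) ΔrhaA at 34 °C. Each TEVp single-site mutant (parent TEVp 0) is paired with a single-site variant of the 7-mer TEVs (canonical ENLYFQ|S). The substrate sits between flexible linkers in a Bxb1-sfGFP-TEVs-SsrA fusion, so cleavage stabilises Bxb1 and speeds flipping of a recombination array, read by NGS. The value is the raw area under the fraction-flipped curve over 0-4 h after rhamnose induction (AUC4h), with ≥20 reads per time point. It is not background-subtracted; inactive controls average about 0.047.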
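Further: Bxb1 expression induced with 0.2% (w/v) L-rhamnose at OD600 near 0.5, cultures sampled hourly, flipped fraction per protease–substrate barcode pair counted by paired-end Illumina sequencing.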

## M122W
  area with substrate ENLYDQS: 0.0636
  area with substrate ENLYEQS: 0.0673
  area with substrate ENLYGQS: 0.0547
  area with substrate ENLYHQS: 0.0705
  area with substrate ENLYIQS: 0.128
  area with substrate ENLYLQS: 0.0801
  area with substrate ENLYMQS: 0.114
  area with substrate ENLYNQS: 0.0721
  area with substrate ENLYPQS: 0.0622
  area with substrate ENLYSQS: 0.0703
  area with substrate ENLYTQS: 0.0917
  area with substrate ENLYVQS: 0.0972
  area with substrate ENLYWQS: 0.0924
  area with substrate ENLYYQS: 0.0631

## L211C
  area with substrate ENLYDQS: 0.0619
  area with substrate ENLYEQS: 0.103
  area with substrate ENLYGQS: 0.0727
  area with substrate ENLYHQS: 0.0803
  area with substrate ENLYIQS: 0.104
  area with substrate ENLYKQS: 0.0611
  area with substrate ENLYMQS: 0.0977
  area with substrate ENLYNQS: 0.08
  area with substrate ENLYQQS: 0.0511
  area with substrate ENLYRQS: 0.0709
  area with substrate ENLYTQS: 0.0954
  area with substrate ENLYVQS: 0.0782
  area with substrate ENLYWQS: 0.0911
  area with substrate ENLYYQS: 0.0633

## V113A
  area with substrate ENLYDQS: 0.0546
  area with substrate ENLYEQS: 0.0568
  area with substrate ENLYGQS: 0.0525
  area with substrate ENLYHQS: 0.0763
  area with substrate ENLYIQS: 0.101
  area with substrate ENLYKQS: 0.0386
  area with substrate ENLYLQS: 0.074
  area with substrate ENLYNQS: 0.0619
  area with substrate ENLYPQS: 0.0574
  area with substrate ENLYRQS: 0.0637
  area with substrate ENLYSQS: 0.0689
  area with substrate ENLYTQS: 0.0597
  area with substrate ENLYWQS: 0.0581
  area with substrate ENLYYQS: 0.0811

## D149K
  area with substrate ENLYDQS: 0.0308
  area with substrate ENLYEQS: 0.0566
  area with substrate ENLYGQS: 0.0576
  area with substrate ENLYHQS: 0.063
  area with substrate ENLYIQS: 0.0809
  area with substrate ENLYLQS: 0.0649
  area with substrate ENLYMQS: 0.0808
  area with substrate ENLYNQS: 0.0577
  area with substrate ENLYQQS: 0.0445
  area with substrate ENLYRQS: 0.0448
  area with substrate ENLYSQS: 0.0742
  area with substrate ENLYVQS: 0.0841
  area with substrate ENLYYQS: 0.055

## F38A
  area with substrate ENLYDQS: 0.0631
  area with substrate ENLYEQS: 0.0681
  area with substrate ENLYGQS: 0.0476
  area with substrate ENLYIQS: 0.0906
  area with substrate ENLYMQS: 0.0705
  area with substrate ENLYNQS: 0.0488
  area with substrate ENLYPQS: 0.0549
  area with substrate ENLYQQS: 0.0524
  area with substrate ENLYSQS: 0.0626
  area with substrate ENLYVQS: 0.0547
  area with substrate ENLYWQS: 0.064
  area with substrate ENLYYQS: 0.0495

## Q234R
  area with substrate ENLYDQS: 0.0524
  area with substrate ENLYEQS: 0.0636
  area with substrate ENLYGQS: 0.0669
  area with substrate ENLYHQS: 0.0791
  area with substrate ENLYIQS: 0.119
  area with substrate ENLYKQS: 0.0669
  area with substrate ENLYLQS: 0.0676
  area with substrate ENLYMQS: 0.0848
  area with substrate ENLYNQS: 0.0694
  area with substrate ENLYRQS: 0.0824
  area with substrate ENLYWQS: 0.0782
  area with substrate ENLYYQS: 0.0882

## S18I
  area with substrate ENLYDQS: 0.0574
  area with substrate ENLYEQS: 0.0747
  area with substrate ENLYGQS: 0.0613
  area with substrate ENLYHQS: 0.0633
  area with substrate ENLYIQS: 0.123
  area with substrate ENLYLQS: 0.0879
  area with substrate ENLYNQS: 0.0588
  area with substrate ENLYQQS: 0.0636
  area with substrate ENLYRQS: 0.0598
  area with substrate ENLYTQS: 0.0768
  area with substrate ENLYVQS: 0.119

## D82W
  area with substrate ENLYDQS: 0.0707
  area with substrate ENLYEQS: 0.0697
  area with substrate ENLYHQS: 0.059
  area with substrate ENLYIQS: 0.0538
  area with substrate ENLYLQS: 0.0456
  area with substrate ENLYMQS: 0.0501
  area with substrate ENLYNQS: 0.0527
  area with substrate ENLYQQS: 0.0656
  area with substrate ENLYRQS: 0.0435
  area with substrate ENLYSQS: 0.0594
  area with substrate ENLYYQS: 0.0571

## R51L
  area with substrate ENLYDQS: 0.0531
  area with substrate ENLYEQS: 0.0547
  area with substrate ENLYHQS: 0.0672
  area with substrate ENLYKQS: 0.0662
  area with substrate ENLYMQS: 0.0699
  area with substrate ENLYNQS: 0.0926
  area with substrate ENLYQQS: 0.0636
  area with substrate ENLYRQS: 0.0557
  area with substrate ENLYSQS: 0.0744
  area with substrate ENLYTQS: 0.11
  area with substrate ENLYVQS: 0.111
  area with substrate ENLYYQS: 0.0434

## M88I
  area with substrate ENLYDQS: 0.0487
  area with substrate ENLYEQS: 0.0637
  area with substrate ENLYGQS: 0.0609
  area with substrate ENLYHQS: 0.0819
  area with substrate ENLYIQS: 0.103
  area with substrate ENLYKQS: 0.0567
  area with substrate ENLYMQS: 0.0931
  area with substrate ENLYNQS: 0.0508
  area with substrate ENLYPQS: 0.0732
  area with substrate ENLYQQS: 0.0569
  area with substrate ENLYSQS: 0.0614
  area with substrate ENLYTQS: 0.0678
  area with substrate ENLYVQS: 0.109
  area with substrate ENLYWQS: 0.0692

## Y34F
  area with substrate ENLYDQS: 0.0653
  area with substrate ENLYEQS: 0.0479
  area with substrate ENLYGQS: 0.067
  area with substrate ENLYHQS: 0.0658
  area with substrate ENLYIQS: 0.13
  area with substrate ENLYKQS: 0.0657
  area with substrate ENLYMQS: 0.108
  area with substrate ENLYNQS: 0.0702
  area with substrate ENLYPQS: 0.0555
  area with substrate ENLYRQS: 0.055
  area with substrate ENLYWQS: 0.0775

## S130Q
  area with substrate ENLYDQS: 0.0729
  area with substrate ENLYEQS: 0.0744
  area with substrate ENLYHQS: 0.0729
  area with substrate ENLYIQS: 0.117
  area with substrate ENLYKQS: 0.0531
  area with substrate ENLYNQS: 0.06
  area with substrate ENLYPQS: 0.0781
  area with substrate ENLYWQS: 0.0786
  area with substrate ENLYYQS: 0.0783

## A196Q
  area with substrate ENLYDQS: 0.0743
  area with substrate ENLYEQS: 0.0666
  area with substrate ENLYGQS: 0.0609
  area with substrate ENLYHQS: 0.0677
  area with substrate ENLYMQS: 0.0932
  area with substrate ENLYNQS: 0.073
  area with substrate ENLYPQS: 0.0775
  area with substrate ENLYRQS: 0.0711
  area with substrate ENLYSQS: 0.0752
  area with substrate ENLYVQS: 0.0894

## K98E
  area with substrate ENLYDQS: 0.0577
  area with substrate ENLYGQS: 0.0609
  area with substrate ENLYKQS: 0.0618
  area with substrate ENLYQQS: 0.0359
  area with substrate ENLYRQS: 0.0411
  area with substrate ENLYWQS: 0.129
  area with substrate ENLYYQS: 0.0616

## E108I
  area with substrate ENLYDQS: 0.0496
  area with substrate ENLYEQS: 0.0604
  area with substrate ENLYGQS: 0.0563
  area with substrate ENLYHQS: 0.0569
  area with substrate ENLYIQS: 0.0621
  area with substrate ENLYKQS: 0.0632
  area with substrate ENLYNQS: 0.0566
  area with substrate ENLYQQS: 0.0429
  area with substrate ENLYTQS: 0.0584
  area with substrate ENLYVQS: 0.0536
  area with substrate ENLYWQS: 0.0612
